# This is one part of the list. These are further read-outs of the screen, such as a control signal, another cell line or another target. No call is given for them. For some assays here: The list favours compounds with an active or inconclusive main result. Words in brackets tell the shape of the fitted curve; partial curves, single points and poor fits give uncertain potencies.
# Columns and labels:
# [1] = qHTS drug screen for cell cycle checkpoint inhibitors in PARPi-resistant BRCA-mutant ovarian cancer cell lines. (AID 1963452); conditions: PEO1/OlaR viability, CellTiter-Glo luminescence, 96 h
# Method in brief: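 PEO1, PEO4 and PEO1/OlaR ovarian cancer cells, 600 per well, exposed 96 h at 37C to a dilution series. Viability read by CellTiter-Glo luminescence, normalized to DMSO and empty wells; activity summarized as Z-AUC.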
# [2] = qHTS for identification of novel therapeutic agents for treatment of microphthalmiaassociated transcription factor (MiT) renal cell carcinoma (RCC) (AID 1963991); conditions: CellTiter-Glo, 48 h; for z-score: stronger effect = lower value
# Method in brief: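 Curves over 11 concentrations were fitted to CellTiter-Glo luminescence, scaled between empty wells (0%) and DMSO (100%) viability. Cells were UOK109, UOK124 and UOK145 TFE3-fusion RCC lines at 500/well, exposed 48 hours at 37 C.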
# [3] = measured here: PEO1 parental viability
# [4] = TFE3-RCC UOK109 viability, measured here: UOK109 Z-AUC
# [5] = TFE3-RCC viability, measured here: UOK124 Z-AUC
# [6] = TFE3-RCC viability, measured here: UOK124 cell viability
# [7] = TFE3-RCC viability, measured here: UOK145 Z-AUC
# [8] = TFE3-RCC viability, measured here: UOK145 cell viability
# Tags tell the direction and shape of the fitted curve.
SMILES,"AC50 [1, 3]",AC50 ([1]; measured here: PEO4 viability),"z-score [2, 4]","z-score [2, 5]","AC50 [2, 6]","z-score [2, 7]","AC50 [2, 8]"
COc1c(C)cnc(Cn2cnc3c(Cl)nc(N)nc32)c1C,"0.776 µM [falling, full curve]","0.616 µM [falling, full curve]",-0.543,-1,"0.148 µM [falling, partial curve, poor fit]",-1.29,"0.148 µM [falling, full curve]"
C[C@@H](O[C@H]1OCCN(Cc2n[nH]c(=O)[nH]2)[C@@H]1c1ccc(F)cc1)c1cc(C(F)(F)F)cc(C(F)(F)F)c1,"17.4 µM [falling, single point]","15.5 µM [falling, single point]",0.333,-0.0415,"23.5 µM [falling, single point]",0.106,"18.7 µM [falling, partial curve, poor fit]"
CC(C)Oc1cc(Nc2nc(N[C@@H](C)c3ccc(F)cn3)ncc2Cl)[nH]n1,"6.92 µM [falling, partial curve]","21.9 µM [falling, partial curve, poor fit]",-0.546,-1.05,"9.35 µM [falling, full curve]",-0.166,"18.7 µM [falling, partial curve]"
Nc1nc(Nc2ccc(S(N)(=O)=O)cc2)nn1C(=O)c1c(F)cccc1F,"4.9 µM [falling, full curve]","3.89 µM [falling, full curve]",-0.545,0.117,"7.43 µM [falling, full curve]",0.344,"11.8 µM [falling, full curve]"
CCCC1OC2C[C@@H]3[C@H]4CCC5=CC(=O)C=C[C@]5(C)[C@H]4C(O)C[C@]3(C)[C@]2(C(=O)CO)O1 (stereo not given in full),"17.4 µM [falling, partial curve, poor fit]","8.71 µM [falling, partial curve, poor fit]",0.639,0.619,,0.763,"0.526 µM [falling, partial curve, poor fit]"
Cc1cc(Nc2cc(NC(=O)c3c(Cl)cccc3Cl)ccn2)nc(N)n1,"0.347 µM [falling, full curve, poor fit]","0.174 µM [falling, full curve, poor fit]",-0.359,-2.92,,-1.43,"0.662 µM [falling, full curve]"
N#CC(c1ccc(Cl)cc1)c1c(Cl)cc(-n2ncc(=O)[nH]c2=O)cc1Cl (stereo not given),"9.77 µM [falling, partial curve]","3.47 µM [falling, full curve, poor fit]",0.156,0.446,,0.227,"0.0296 µM [rising, full curve, poor fit]"
S=c1nc[nH]c2nc[nH]c12,"2.19 µM [falling, full curve]","1.95 µM [falling, full curve]",-0.403,-0.967,"0.833 µM [falling, full curve]",-0.545,"4.18 µM [falling, full curve]"
Cc1nc(N)sc1-c1ccnc(Nc2ccc(N3CCOCC3)cc2)n1,"15.5 µM [falling, partial curve]","9.77 µM [falling, partial curve]",-0.782,-0.0442,"14.8 µM [falling, partial curve]",-0.808,"7.43 µM [falling, full curve]"
CCOC(=O)C1=C(C)NC2=C(C(=O)CC(C)(C)C2)C1c1ccc(-c2ccccc2)cc1 (stereo not given),"17.4 µM [falling, single point]","21.9 µM [falling, single point]",0.526,0.982,,0.602,"23.5 µM [falling, partial curve]"
COc1cc(C(C)C)c2c(c1)S(=O)(=O)N(COc1cc(=O)n3cccc(OCCN4CCCCC4)c3n1)C2=O,"24.5 µM [falling, single point]","15.5 µM [falling, single point]",-0.0325,0.374,"33.2 µM [falling, single point]",-0.429,"16.6 µM [falling, partial curve]"
Cc1ccc(NC(=O)c2ccc(CN3CCN(C)CC3)cc2)cc1Nc1nccc(-c2cccnc2)n1,"11 µM [falling, partial curve, poor fit]","15.5 µM [falling, single point]",-0.27,0.286,"33.2 µM [falling, partial curve, poor fit]",-0.398,"37.2 µM [falling, single point]"

# From PubChem BioAssay (NCATS)
